According to PubChem BioAssay AID493208 (National Center for Advancing Translational Sciences (NCATS), 2011):
Hit rate of the full screen: of about 44,000 compounds, about 340 (0.77%) were called active. Roughly 5% stayed inconclusive and do not appear here. Calls come from the whole dose curve; as a rule, active = well fitted inhibition curve with a large enough effect; inconclusive = small, poorly fitted or top-dose-only effect; inactive = flat fitted curve, though single readings scatter. Some of the results follow.

Experiment: Acumen qHTS Assay for Inhibitors of the mTORC1 Signaling Pathway in MEF (Tsc2-/-, p53-/-) Cells: Sytravon; note: nearly all actives have a fitted effect of over 50% in size
Settings: phospho-rpS6 immunofluorescence/PI, 24 h; series mostly up to 38.3 µM; activity change, negative = inhibition: at the top concentration
Summary of the method: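 Readout is phospho-S6 Alexa 488 signal normalized to PI per well, reported as % active cells with thresholds set from rapamycin (7.5 nM) and DMSO controls. Cells: Tsc2-/-, p53-/- MEFs, 24 hrs compound at 37 C; PI cell number serves as viability.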

Activity change, negative = inhibition, inactive:
O=C(NCCc1ccccc1)c1sc2ncccc2c1-n1cccc1 -1.76%
CCC1CCCCN1C(=O)Cn1c(=O)oc2cc(S(=O)(=O)N3CCCCC3)ccc21 (stereo not given) 0.659%
Cc1nn(Cc2ccccc2Cl)c(C)c1NC(=O)c1cc(C(C)C)on1 11.1%
Cc1ccc(NC(=O)C(Cc2ccccc2)NS(=O)(=O)c2ccc3c(c2)oc(=O)n3C)cc1F (stereo not given) 1.43%
O=C(Nc1nc2n(n1)C(c1ccc(F)cc1)C=C(c1ccccc1)N2)c1ccc(Cl)cc1 (stereo not given) 1.24%
Clc1cccc(-n2ncc3c(N4CCC(Cc5ccccc5)CC4)ncnc32)c1 6.67%
Cc1cc(C)cc(NC(=O)C(=O)NCC(c2cccnc2)N2CCc3ccccc3C2)c1 (stereo not given) 3.66%
CCCCNC(=O)C1CCC(Cn2c(=O)c3sccc3n(CC(=O)N3CCCC3)c2=O)CC1 (stereo not given) -11.3%
O=C(Nc1cc(C(F)(F)F)ccc1Cl)c1nc2ccccc2nc1N1CCCCC1 -7.52%
CCc1ccccc1NC(=O)c1sc2nc3c(cc2c1N)CN(Cc1ccccc1)CC3 -10.4%
CCOC(=O)c1c(C)oc2nc(C)nc(NCc3ccc(OC)cc3OC)c12 -5.69%
O=C(CSc1nncn2c1cc1sccc12)Nc1ccc(Br)cc1F -2.48%
COC(=O)c1cccnc1-n1c(=O)c2cccnc2n(CC(=O)Nc2ccccc2F)c1=O -5.12%
O=C(Cn1c(=O)nc(-c2ccccc2)c2ccccc21)NCc1ccc(Cl)cc1 -15.8%
CCc1ccc(NC(=O)CCn2nc(C)c(S(=O)(=O)N3CCCCC3)c2C)cc1 -0.567%
CCOc1ccccc1NC(=O)C1CCN(S(=O)(=O)c2ccc3c(c2)CC(C)N3C(C)=O)CC1 (stereo not given) 1.29%
CCOc1ccc(Cn2c(CNS(=O)(=O)c3ccc(Cl)s3)nc3cccnc32)cc1 -24.7%
COc1cccc(N2CCN(S(=O)(=O)c3ccc(-n4cnnn4)cc3)CC2)c1 0.106%
COc1ccc2c(C)cc(SCC(=O)Nc3nsc(-c4ccccc4C)n3)nc2c1 2.97%
CCOC(=O)c1ccccc1NC(=O)Cn1c(=O)n(-c2cccc(C)c2)c(=O)c2c1c1cc(C)ccc1n2C -1.7%
O=C(NCC(c1ccc2c(c1)OCO2)N1CCOCC1)c1cccc(Cl)c1 (stereo not given) -2.52%
COc1cc(C2C(C(=O)Nc3ccccc3C)=C(C)Nc3ncnn32)ccc1OCC(N)=O (stereo not given) -19%
Cc1ccc(NC(=O)CSc2ccc(-c3cccs3)nn2)cc1Cl -4.26%
CN(c1ccccc1)S(=O)(=O)c1ccc(NC(=O)c2cc(=O)c3ccccc3o2)cc1 -5.82%
COCC(=O)NCc1nc2cccnc2n1Cc1ccc(F)cc1 1.28%
Cc1oc(C)c2c(=O)cc(-c3ccc4c(c3)OCO4)cc(OC(=O)c3cccc(Br)c3)c12 4.38%
O=C(CCn1cnnn1)Nc1ccc(F)cc1 1.71%
COc1ccc(-n2ncc(C(=O)NCCc3ccsc3)c2C2CCN(C(=O)OC(C)(C)C)CC2)cc1 -0.188%
Cc1ccc(Cn2c(CNS(=O)(=O)c3ccc(F)c(Cl)c3)nc3cccnc32)cc1 -16.9%
Cc1noc(-c2ccc(N3CCCCC3)c([N+](=O)[O-])c2)n1 0.355%
CC(=O)Nc1ccc2nc3c(=O)[nH]c(=O)[nH]c3nc2c1 -14.7%
Cc1ccccc1CCNC(=O)c1ccc2c(c1)nc1n2CCC(C)C1 (stereo not given) 4.05%
COc1ccccc1C1Nc2ccccc2-n2c(-c3ccccc3)c3c(=O)n(C)c(=O)n(C)c3c21 (stereo not given) 2.66%
COc1ccc(-c2noc(-c3ccc(N4CCN(c5ccccc5)CC4)c([N+](=O)[O-])c3)n2)cc1OC -11.2%
CCOC(=O)C1(C)C=C(Nc2cccc(C(=O)O)c2)C(=O)N1c1cccc(C(=O)O)c1 (stereo not given) 5.11%
CCCCc1nn2c(=O)cc(COC(=O)c3ccc(NC(=O)c4ccccc4C)cc3)nc2s1 0%
Cc1ccc(CNS(=O)(=O)c2ccc3[nH]c4c(c3c2)CCCC4)cc1 -15.3%
Cc1cc(F)ccc1NS(=O)(=O)c1ccc(-n2cccn2)cc1 -4.64%
O=C1CS(=O)(=O)C2(C(=O)N(Cc3ccccc3)c3ccccc32)N1c1ccccc1 (stereo not given) 2.24%
COc1ccc(OC)c(CNC(=O)Cc2ccc(NC(=O)N3CCSc4ncccc43)cc2)c1 0.336%
Cc1ccc(CCNC(=O)c2ccc3c(c2)nc2n3CCC(C)C2)cc1 (stereo not given) -15.1%
COc1cc2c(cc1OC)C(COc1ccccc1OC)N(C(=O)COc1ccc(Cl)cc1)CC2 (stereo not given) -0.636%
Cc1cc(C)n(CCc2nc3c4ccccc4nc(N4CCN(c5ccccc5)CC4)n3n2)n1 -5.04%
COc1cccc(CNC(=O)C2CCCCN2S(=O)(=O)c2ccc(F)cc2)c1 (stereo not given) -19.6%
Cc1ccc(S(=O)(=O)c2nnn3c2nc(N2CCN(c4ccccc4F)CC2)c2cc(Cl)ccc23)cc1C -0.0789%
O=C(c1ccc2c(c1)N(Cc1cccc(F)c1)C(=O)c1ccccc1S2)N1CCOCC1 -7.5%
CC(=O)N1c2c(cc(Br)cc2S(=O)(=O)N2CCN(c3cc(C)ccc3C)CC2)CC1C (stereo not given) 2.81%
Cc1ccccc1CN1C(=O)c2ccccc2S(=O)c2ccc(C(=O)NC3CCC(C)CC3)cc21 (stereo not given) 0.763%
Cc1ccc(S(=O)(=O)c2nnn3c2nc(N2CCCC2)c2sccc23)cc1C 0.497%
CC1=C(C#N)C(NC(=O)c2ccccc2Cl)(C(F)(F)F)C(=O)N1 (stereo not given) -0.0651%
CCc1ccc(NC(=O)c2sc3nc(C)c(Cl)c(C)c3c2NC(=O)c2ccccc2OC)cc1 7.45%
COc1ccc(OC)c(NC(=O)C2=C(C)C(=O)OC23CCCCCC3)c1 -7.39%
Cc1ccc(CN(C(=O)COc2ccc([N+](=O)[O-])cc2)c2ccccn2)cc1 -11.5%
CCN(CC)CCCNC(=O)c1cn(C)c2ccc(S(=O)(=O)N(C)C3CCCCC3)cc2c1=O -0.323%
CCN(CC)CCCNC(=O)c1cnc(SC)nc1-c1ccccc1 -1.67%
Cc1ccc2c(=O)cc(C(=O)Nc3nc4ccc(Cl)cc4s3)oc2c1C 3.97%
CCOCCc1nn2c(=O)cc(COC(=O)CNC(=O)c3cccc(C)c3)nc2s1 0%
O=C(COc1ccc(Cl)cc1)Nc1nnc(S(=O)(=O)N2CCc3ccccc32)s1 6.69%
COc1cccc(-c2ncnn2-c2sc3c(c2C#N)CCCCC3)c1OC -0.579%
CCN(C(=O)CSc1nc2ncccc2[nH]1)c1ccc(C(C)C)cc1 -4.95%
COc1ccc(CNc2nc3c(-c4cccc(C)c4)nnn3c3ccccc23)cc1 2.39%
Cc1nn(CC(=O)N2CCC(C)CC2)c(=O)c2cc3sccc3n12 -7.61%
CCOc1ccc(CCNC(=O)c2cn(C)c3ccc(S(=O)(=O)N4CCCCCC4)cc3c2=O)cc1OCC -1.78%
CC(C)c1ccc(NC(=O)Cn2cc(S(=O)(=O)N3CCN(c4ccccc4F)CC3)c3ccccc3c2=O)cc1 -8.29%
COc1ccccc1NC(=O)c1c(NCc2ccc(OC)c(OC)c2OC)sc2c1CCC2 -14.6%
CCOC(=O)c1c(C)[nH]c(C)c1S(=O)(=O)N(C)CC(=O)N1CCN(c2ccccc2)CC1 -0.562%
Cc1cc(Cl)ccc1OCc1nc(-c2ccc(-n3cccc3)cc2)no1 6.34%
CCCCOC(=O)c1ccc(NC(=O)c2cc3c(=O)n4cccc(C)c4nc3s2)cc1 1.38%
CCOc1ccc(N2CC(c3nc4ccccc4n3CCCOc3ccccc3)CC2=O)cc1 (stereo not given) -4.88%
Cc1c(C(=O)NCC(c2ccc(Cl)cc2)N2CCOCC2)oc2ccccc12 (stereo not given) 1.54%
CCCNC(=O)CCc1nnc2ccc(N3CCN(c4cccc(OC)c4)CC3)nn12 -0.983%
CCCCN(C)CCNC(=O)c1c2c(nc3ccccc13)C(=O)N(C1CCCCC1)C2 5.8%
CCC(=O)N1CCc2cc(Br)cc(S(=O)(=O)CCC(=O)NCCc3cccc(C)c3)c21 1.81%
Cc1ccc(NC(=O)CCn2c(=O)c3cccn3c3ccccc32)cc1C 2.13%
Cc1ccc(-n2c(=O)c3cccnc3n2CC(=O)Nc2ccc(Br)cc2)cc1C -0.129%
CC(Oc1ccc(F)cc1)C(=O)N1CCC(c2nc3ccccc3s2)CC1 (stereo not given) -10.3%
Cn1ncc2c(N3CCN(c4cccc(Cl)c4)CC3)ncnc21 14%
CCOC(=O)N1CCc2c(sc(NCc3sccc3C)c2C(=O)Nc2ccc(OC)cc2OC)C1 1.43%
Cc1cc(C)cc(NC(=O)C(Cc2ccccc2)NS(=O)(=O)c2ccc3c(c2)c(=O)n(C)c(=O)n3C)c1 (stereo not given) -13.2%
COc1ccc(C)cc1NC(=O)CCS(=O)(=O)c1cc2c3c(c1)CCN3C(=O)CC2 1.8%
CCOc1ccc(Oc2nc(NCC(C)C)nc(N3CCOCC3)n2)nn1 -0.624%
COc1cccc(CNC(=O)C(=O)NCC(c2ccco2)S(=O)(=O)c2cccs2)c1 (stereo not given) -4.68%
CC(=O)N1CCc2cc(CNC(=O)Cc3ccc(F)cc3)ccc21 -2.22%
CCOc1ccccc1CNC(=O)C1CCN(C(=O)N2CC(CC)Oc3ccc(C)cc32)CC1 (stereo not given) 8.22%
O=C(/C=C/c1ccccc1)N1CCN(Cc2cc(=O)n3nc(-c4ccccc4F)sc3n2)CC1 -24.7%
CC(C)(C)C(=O)Cn1c(=O)n(-c2ccc(Cl)cc2)c(=O)c2c3c(sc21)CCCC3 -2.05%
COc1ccc(N2CC(NC(=O)/C=C\c3ccccc3)CC2=O)cc1 (stereo not given) -0.299%
O=C(Cn1c(SCCOc2ccccc2)nc2ccccc21)N1CCOCC1 -10.7%
Cc1cc(OCCn2cc(C(=O)c3cccs3)c3ccccc32)ccc1Cl -9.46%
O=C(Nc1ccc2nc(SCC(=O)N3CCOCC3)sc2c1)c1cccc(Cl)c1 -12%
COc1ccc(NC(=O)Cn2c(=O)n(CCC(=O)NCc3ccccc3OC)c(=O)c3ccccc32)cc1Cl -4.77%
Cc1ccc(Cn2ccn(Cc3ccccc3F)c(=O)c2=O)cc1 0%
COc1ccc(Cl)cc1N(C)C(=O)c1ccc2c(=O)n3c(nc2c1)CCCCC3 -7.46%
Cc1c(Cl)cccc1NC(=O)COCc1cc(-c2ccc3c(c2)OCO3)on1 -13.1%
COc1cccc(CNC(=O)CCc2c(C)nc3c(c(C)nn3-c3ccc(C)c(C)c3)c2C)c1 -2.46%
